Results as given in PubChem BioAssay AID1745853 (National Center for Advancing Translational Sciences (NCATS), 2022).
“And” between values parts separate entries of the source, which are not always exact repeats. Identical values can stand only once. The list shows a part of the results. The main result of the screen is listed elsewhere. These columns were measured beside it and carry no call.

Legend:
Experiment in all cases: Primary Screen for Target Class Profiling of Small Molecule Inhibitors of Methyltransferases
[1] = target: Glycine N-methyltransferase (Homo sapiens) (UniProt Q14749); details: purified enzyme, MTase-Glo SAH luminescence; measured here: GNMT inhibition; at 40 µM; stronger effect = lower value
Method in brief: (§1)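 Each enzyme was assayed with SAM and its substrate. SAH formation detected by MTase-Glo luminescence; single-point 40 uM screen[…].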

[2] = target: Guanidinoacetate N-methyltransferase (Homo sapiens) (UniProt Q14353); details: purified enzyme, MTase-Glo SAH luminescence; measured here: GAMT inhibition; at 40 µM; stronger effect = lower value
Method in brief: as §1

[3] = target: Histamine N-methyltransferase (Homo sapiens) (UniProt P50135); details: purified enzyme, MTase-Glo SAH luminescence; measured here: HNMT inhibition; at 40 µM; stronger effect = lower value
Method in brief: as §1

[4] = target: Nicotinamide N-methyltransferase (Homo sapiens) (UniProt P40261); details: purified enzyme, MTase-Glo SAH luminescence; measured here: NNMT inhibition; at 40 µM; stronger effect = lower value
Method in brief: as §1

[5] = target: Phenylethanolamine N-methyltransferase (Homo sapiens) (UniProt P11086); details: purified enzyme, MTase-Glo SAH luminescence; measured here: PNMT inhibition; at 40 µM; stronger effect = lower value
Method in brief: as §1
% is scaled to controls: 0 for no effect and ±100 for the full control effect.

SMILES | activity change, negative = inhibition [1] | activity change, negative = inhibition [2] | activity change, negative = inhibition [3] | activity change, negative = inhibition [4] | activity change, negative = inhibition [5]
CCC1(O)CCC2C3CCC4=CC(=O)CCC4C3CCC21CC (configuration not stated) | -3.49% | 1.15% | 3.17% | -14.3% | -1.16%
Cc1cc(C(=O)CN2CCCC2)c(C)n1-c1ccc(F)cc1 | -8.32% and -9.2% | 1.75% and -10.2% | -3.22% and -5.15% | -15.4% and -19.8% | -4.25% and -5.52%
Cc1ccc(CNC(=O)N2Cc3ccccc3-n3cccc3C2c2ccc(F)cc2)cc1 (configuration not stated) | -3.6% | 3.42% | -3.71% | -5.2% | 2.06%
C[C@@]1(CO)[C@H](O)CC[C@@]2(C)[C@H]1CC[C@H]1C[C@@H]3C[C@@]12CC[C@]3(O)CO | 0% | 3.59% | -0.028% | -9.37% | 4.2%
CC1(C(=O)O)C2CCC(O2)C1(C)C(=O)O (configuration not stated) | -11.1% | 2.9% | -0.379% | -3.77% | 5.43%
CC(C)(C)NCC(O)c1ccccc1Cl (configuration not stated) | 2.59% | 14.6% | 8.71% | -1.07% | 6.19%
Cc1ccc(CNC(=O)N2Cc3ccccc3-n3cccc3C2C)cc1 (configuration not stated) | 12.7% | 3.17% | 3.51% | -5.71% | 7.21%
CC1c2cccn2-c2ccccc2CN1C(=O)NCc1ccccc1 (configuration not stated) | 4.84% | 3.07% | -7.56% | -17.8% | -0.44%
Cc1cccc(C2c3cccn3-c3ccccc3CN2C(=O)Nc2cccc(Cl)c2C)c1 (configuration not stated) | 0.857% | 2.86% | -1.58% | 0.111% | 0.896%
C#C[C@H]1CN2CC[C@H]1C[C@@H]2CNC(=O)C1CC1 | -3.84% | -3.23% | -13.8% | -7.26% | -7.93%
CCC1c2cccn2-c2ccccc2CN1C(=O)NCCc1ccccc1 (configuration not stated) | 6.56% | 0% | -1.96% | -2.4% | 2.89%
COC(=O)N1CCN(C(=O)Cc2ccc(Cl)c(Cl)c2)[C@@H](CN2CCCC2)C1 | 2.92% |  | 5.15% |  | 
FC(F)(F)CN1C2CCC1CN(c1nnc(Cl)c3ccccc13)C2 | -17.2% | 0.825% | -0.842% | -3.81% | -5.5%
CC(=O)OCC1=C(C(=O)O)N2C(=O)[C@@H](N)[C@H]2SC1 | 2.05% | 1.23% | 13.4% | -4.02% | 5.01%
CCC1c2cccn2-c2ccccc2CN1C(=O)Nc1ccc(C)c(Cl)c1 (configuration not stated) | 1.4% | 5.08% | 1.99% | 1.93% | 3.36%
CCOc1ccc(C2c3cccn3-c3ccccc3CN2C(=O)NCCC(=O)OC)cc1 (configuration not stated) | -0.551% | 1.12% | 6.01% | 3.55% | 7.83%
Cc1cccc(NC(=O)N2Cc3ccccc3-n3cccc3C2C)c1 (configuration not stated) | 9.36% | 4.11% | 5.27% | 0.04% | 6.34%
CCCS(=O)(=O)Nc1ccc(=O)n2c1[C@@H]1C[C@@H](CN(C(=O)Nc3ccc(OC)cc3)C1)C2 | -3.25% | 2% | -2.95% | -1.14% | 0.366%
CSc1nccc(N2CCC3(CCCN(CC4CC4)C3)C2)n1 (configuration not stated) | -3.52% | -9.57% | -13.8% | -13.3% | -8.69%
CCC(C)(C#N)O[C@@H]1O[C@H](CO)[C@@H](O)[C@H](O)[C@H]1O (some centres not stated) | 1.01% | 10.1% | 9.09% | -3.63% | 6.99%
CC(=O)OC[C@]12[C@H](OC(C)=O)C(=O)[C@@H]3[C@@H](O)[C@@]14O[C@@]3(C)COC(=O)c1cccnc1[C@@H](C)[C@H](C)C(=O)O[C@@H]([C@H](OC(C)=O)[C@@H]2OC(C)=O)[C@]4(C)O | 4.98% | 4.52% | 6.26% | -7.34% | 2.32%
CC1=CC(=O)[C@@H](O)[C@]2(C)C3[C@@H](O)[C@@H]4OC(=O)[C@@H]([C@H]4C)[C@]3(C)C(=O)C[C@@H]12 (some centres not stated) | 0% | 1.71% | 2.1% | -10.4% | 4.98%
NCc1cc(=O)[nH]o1 | -2.23% | 7.54% | 1.94% | -4.71% | -1.79%
C[C@H]1CCC/C=C/C2C[C@H](O)C[C@H]2[C@H](O)/C=C/C(=O)O1 (some centres not stated) | -5% | -4.81% and 6.73% | 3.5% | -8.97% and -6.99% | -2.33% and 5.26%
C[C@]12CC[C@H](O[C@@H]3O[C@H](CO)[C@@H](O)[C@H](O)[C@H]3O[C@@H]3O[C@H](CO)[C@@H](O)[C@H](O)[C@H]3O)CC1=CC[C@@H]1[C@@H]2CC[C@]2(C)[C@@H](C3=CC(=O)OC3)CC[C@]12O | -3.64% | -5.52% | 0.263% | -12.7% | -1.87%
CC(=O)O[C@H]1CC[C@@]2(CI)C(=CC[C@@H]3[C@@H]2CC[C@]2(C)C(=O)CC[C@@H]32)C1 | -7.1% | -9.37% | -5.49% | -13.6% | -0.108%
COc1ccc(NC(=O)N2Cc3ccccc3-n3cccc3C2c2cccs2)cc1 (configuration not stated) | 9.71% | 5.34% | -0.532% | -3.02% | 5.74%
COC(=O)c1cccc(NC(=O)N2Cc3ccccc3-n3cccc3C2c2ccc(SC)cc2)c1 (configuration not stated) | -1.01% | 6.11% | 0.844% | -5.55% | 1.48%
CN(C)c1ccc(C2c3cccn3-c3ccccc3CN2C(=O)Nc2ccccc2F)cc1 (configuration not stated) | 5.67% | 2.01% | -0.014% | 4.57% | 6.21%
C#CCN[C@H](C)Cc1ccccc1 | -8.39% | 2.02% | -3.6% | -10.3% | -1.54%
